From patent US20210038681A1, “PHARMACEUTICAL COMPOSITION FOR TREATING VIRAL HEPATITIS C” (priority 2018, published 2021) come the findings set out here.

Holding throughout (format): cell-based
Holding throughout (conditions): Hepatitis C virus, read-out: Mean EC50 (nM)

Experiment [1] concerns HCV 1b replicon C316Y (NS5B).
The subject of experiment [2] is HCV 1b replicon R262Q + R318W + D320E (NS5A).
Experiment [3] has as its system HCV 1b replicon S282T (NS5B).
Experiment [4] concerns HCV 1b replicon D168A (NS3).

Structures are written as SMILES.

`COC(=O)N[C@H](C(=O)N1CCC[C@H]1c1ncc(-c2ccc3cc(-c4ccc5nc([C@@H]6CCCN6C(=O)[C@@H](NC(=O)OC)C(C)C)[nH]c5c4)ccc3c2)[nH]1)C(C)C` [ASC16, Ravidasvir]: the concentration for a half-maximal effect (EC50) in experiment [1] was 0.009 nM; in experiment [2], 0.009 nM; in experiment [3], 0.008 nM; in experiment [4], 0.007 nM.
Consider `CC(C)(C)OC(=O)N[C@H]1CCCCC/C=C\[C@@H]2C[C@@]2(C(=O)NS(=O)(=O)C2CC2)NC(=O)[C@@H]2C[C@@H](OC(=O)N3Cc4cccc(F)c4C3)CN2C1=O` [ASC08, Danoprevir], for which the EC50 is 0.7 nM in experiment [1], 0.8 nM in experiment [2], 0.6 nM in experiment [3] and 128 nM in experiment [4].

Broadly, the EC50 is the concentration needed to bring the measured effect to its halfway point.
